Test results reported in publication PMC4336329 (PLoS ONE, 2015).
In all, about 310,000 compounds went through this assay and about 2,200 (0.71%) showed an effect of 50% or more. The effect is printed as a negative number. The list shows a part of the results.

What follows are molecules tested against human ether-à-go-go-related gene (hERG) potassium channel (human, UniProt Q12809) (assay: primary screen, population patch clamp on CHO cells stably expressing hERG).
Chain of human ether-à-go-go-related gene (hERG) potassium channel (Q12809 whole entry, looked up): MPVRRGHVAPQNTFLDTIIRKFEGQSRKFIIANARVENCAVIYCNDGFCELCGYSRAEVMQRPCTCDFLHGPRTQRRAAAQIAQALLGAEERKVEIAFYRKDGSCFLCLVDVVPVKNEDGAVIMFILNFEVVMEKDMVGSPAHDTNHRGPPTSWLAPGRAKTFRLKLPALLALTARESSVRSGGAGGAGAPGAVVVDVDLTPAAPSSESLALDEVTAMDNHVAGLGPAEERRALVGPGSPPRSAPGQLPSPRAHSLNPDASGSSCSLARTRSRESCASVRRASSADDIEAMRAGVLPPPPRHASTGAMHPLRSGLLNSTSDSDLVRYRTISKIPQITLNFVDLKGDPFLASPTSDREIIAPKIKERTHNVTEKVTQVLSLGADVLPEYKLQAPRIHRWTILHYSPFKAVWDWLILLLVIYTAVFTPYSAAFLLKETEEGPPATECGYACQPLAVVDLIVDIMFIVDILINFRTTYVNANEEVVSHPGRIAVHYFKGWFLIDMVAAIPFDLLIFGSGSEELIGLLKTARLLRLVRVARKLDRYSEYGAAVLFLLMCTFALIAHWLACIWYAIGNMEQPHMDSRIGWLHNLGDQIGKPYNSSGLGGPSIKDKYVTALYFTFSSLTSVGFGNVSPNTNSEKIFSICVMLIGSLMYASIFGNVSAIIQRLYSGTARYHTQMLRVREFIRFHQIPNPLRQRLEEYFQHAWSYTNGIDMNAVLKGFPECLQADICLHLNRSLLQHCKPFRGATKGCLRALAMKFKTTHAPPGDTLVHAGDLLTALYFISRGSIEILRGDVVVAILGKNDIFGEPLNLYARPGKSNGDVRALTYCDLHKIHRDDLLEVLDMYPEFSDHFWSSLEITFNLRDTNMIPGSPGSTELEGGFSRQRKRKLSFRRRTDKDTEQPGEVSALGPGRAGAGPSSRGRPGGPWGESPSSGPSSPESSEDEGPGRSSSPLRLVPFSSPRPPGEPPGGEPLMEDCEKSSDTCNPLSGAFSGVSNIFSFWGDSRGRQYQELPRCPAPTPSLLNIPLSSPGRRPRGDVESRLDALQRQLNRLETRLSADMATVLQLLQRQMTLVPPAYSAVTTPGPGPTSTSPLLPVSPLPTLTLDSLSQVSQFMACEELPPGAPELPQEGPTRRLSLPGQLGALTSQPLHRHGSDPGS

Structure (SMILES) | hERG current change (%, negative = inhibition) at 1uM
CCN(CC(=O)NC1CCS(=O)(=O)C1)S(=O)(=O)c1cc(Br)ccc1Br (stereo not drawn) | 5.34%
FC(F)(F)c1ccc(-n2cn[nH]c2=S)cc1 | 13.1%
Cc1cc(=O)[nH]c(SCCOc2cccc(C(F)(F)F)c2)n1 | 13.2%
Cc1cccc(CN2CCN(C(c3ccccc3)c3ccc(Cl)cc3)CC2)c1.Cl (stereo not drawn) | 20.5%
O=C(NCCC1CC1(Cl)Cl)c1ccc([N+](=O)[O-])cc1 (stereo not drawn) | -1.07%
CCOc1ccc(C(=O)N[C@H](C(=O)Nc2ccccc2OC)C(C)C)cc1 | 8.93%
O=C(NC1CCCC1)C(c1cccnc1)N(Cc1ccccc1F)C(=O)c1csnn1 (stereo not drawn) | 9.57%
CCCC(=O)N(c1ccc2oc(=O)sc2c1)S(=O)(=O)c1ccccc1 | 9.92%
Nc1nc(SCC(=O)Nc2ccccc2Oc2ccccc2)n[nH]1 | 10.4%
Cc1c(C(=O)NCc2ccc3c(c2)OCO3)sc2nc(-c3ccc(F)cc3)cn12 | 14.7%
O=C(c1ccc2ccccc2c1)C1CCCN(C(=O)c2cccnc2)C1 (stereo not drawn) | 9.32%
Cc1ccc(S(=O)(=O)N(C)C)cc1NC(=O)c1c(-c2c(F)cccc2Cl)noc1C | 7.98%
O=C(N/N=C/c1ccoc1)c1ccccc1O | 8.4%
O=C(CCN1C(=O)/C(=C/c2cccs2)SC1=S)Nc1ccccc1O | 8.15%
CN(C)N1C(N)=C(C#N)C(c2ccccc2)C2=C1CCCC2=O (stereo not drawn) | 5.28%
Cc1nc2ccccc2cc1C(=O)O | 17.7%
COc1ccc(CCNc2oc(-c3ccc(OC)c(OC)c3)nc2P(=O)(OC)OC)cc1OC | 5.48%
CCN(CC)CCCNC(=O)CCc1ccccc1 | 9.18%
Cc1ccc(S(=O)(=O)N(C)C)cc1NC(=O)C1Cc2ccccc2CN1C(=O)c1ccco1 (stereo not drawn) | 6.76%
CC(C)=CC(=O)NCCc1ccccc1 | -3.6%
C=CCNCc1ccccc1[N+](=O)[O-] | 12.7%
C=COCCNC(=O)Nc1ccc(Cl)c(Cl)c1 | 11.3%
CCc1nnc(NC(=O)CSc2nc3[nH]ncc3c(=O)[nH]2)s1 | 17%

Structure (SMILES) | hERG current change (%, negative = inhibition) at 1uM
Cn1c(=O)[nH]c(=O)c2c1nc(N1CCCCC1)n2CCCSc1nnnn1-c1ccccc1 | -10.6%
CCOc1cc(Cl)c(S(=O)(=O)NCCCn2ccnc2)cc1Cl | -10.7%
O=C(NCc1ccc(Cl)cc1)C1CCN(S(=O)(=O)N2CCOCC2)CC1 | -5.66%
Cc1nc2sc(C(c3ccccc3)N3CCC(O)CC3)c(O)n2n1 (stereo not drawn) | 3.91%
COc1cccc(NC(=O)/C=C/c2ccco2)c1 | 4.27%
CC(=O)c1cccc(NS(=O)(=O)c2c(C(=O)N3CCOCC3)c(C)n(C)c2C)c1 | 8.62%
Cc1cc(O)c(-c2cc(C(=O)Nc3sc4c(c3C(=O)NCc3ccco3)CCC4)[nH]n2)cc1C | 21.9%
CCOC(=O)c1cnc2ccc(OCC)cc2c1NCc1ccccc1OC | 14.2%
O=C(CSc1nnc(CNC(=O)c2ccco2)o1)c1ccccc1 | 10.2%
COc1ccc(-c2csc(NC(=O)CSc3n[nH]c(C)n3)n2)cc1 | 16.6%
O=C(Cc1n[nH]c(=O)c2ccccc12)Nc1cccc(S(=O)(=O)N2CCCCCC2)c1 | 5.7%
Cc1ccc(S(=O)(=O)N2CCCN(C)CC2)cc1.Cl | 15.4%
COC(=O)CC1=NN(c2ccccc2)C(=O)C1 | 9.68%
CCCCOCCCn1c(N)c(C(=O)OC(C)COC)c2nc3ccccc3nc21 (stereo not drawn) | 11.6%
Cc1cccc(NCCNc2cccc(C)c2)c1 | 23.2%
CC(=O)Nc1ccc(C(=O)OCCCOC(=O)c2ccc(NC(C)=O)cc2)cc1 | 0.0424%
COc1ccc(C2NN=C(c3c[nH]c4ccccc34)C2O)cc1 (stereo not drawn) | 12.2%
COc1cc(CNCCc2c[nH]c3ccccc23)ccc1OCc1ccc(F)cc1.Cl | -4.82%
C[C@@H](NC(=O)[C@@H]1Cc2ccccc2CN1C(=O)OC(C)(C)C)C(=O)NC1CCCCC1 | 1.73%
CCCc1cc(=O)[nH]c(SCC(=O)N2CCc3cc(OC)c(OC)cc3C2)n1 | 12.4%
CC(C)c1nnc(NC(=O)CCC(=O)NCc2ccccc2Cl)s1 | 7.3%
O=C1C2CCCCN2C(=O)N1CCN1CCN(c2ccc([N+](=O)[O-])cc2)CC1 (stereo not drawn) | -69.7%
